{"source": "PubChem BioAssay AID1347073", "about": "(National Center for Advancing Translational Sciences (NCATS), 2019)", "note": "The whole screen tested about 45,000 compounds, of which about 200 (0.44%) were called active. Another 7% or so got no clear call; they are omitted. Calls follow the shape of the dose curve; as a rule, active = well fitted activation curve with a large enough effect; inconclusive = small, poorly fitted or top-dose-only effect; inactive = no such curve, though single readings can be large or run the other way. The list shows a part of the results.", "data": [{"assay": "qHTS of TDP-43 Inhibitors: NCGC Sytravon Library Screen; also: 0% is about no effect; nearly all actives have a fitted effect of over 55% in size", "settings": "yeast TDP-43 toxicity rescue, BacTiter-Glo growth, 24 h; series mostly up to 46.1 µM; growth rescue (activation): at the top concentration", "how_it_was_run": "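TDP-43-expressing yeast, pregrown in raffinose, seeded at OD600 0.02 in galactose medium with compound for 24 hr at 30 deg C. Growth read by BacTiter-Glo luminescence, so rescue of toxicity appears as activation.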", "values": [{"smiles": "CCCn1nnnc1NCc1ccccc1F", "growth rescue (activation)": "inactive: -8.71%"}, {"smiles": "O=C(CN1CC[C@@]2(O)CCCC[C@H]2[C@@H]1c1ccc(F)cc1)NCc1ccco1", "growth rescue (activation)": "inactive: -14.2%"}, {"smiles": "COc1cccc(C(=O)NCCNC(=O)c2ccco2)c1", "growth rescue (activation)": "inactive: -8.22%"}, {"smiles": "O=[N+]([O-])c1ccn(-c2nc(-c3ccccc3)cc(C(F)(F)F)n2)n1", "growth rescue (activation)": "inactive: 22.5%"}, {"smiles": "Cc1cccc(C(=O)Oc2ccccc2-c2nnco2)c1", "growth rescue (activation)": "inactive: 4.69%"}, {"smiles": "COc1ccccc1N1C(=O)C2C3C=CC(C3)C2(C)C1=O", "note": "(configuration not stated)", "growth rescue (activation)": "inactive: -4.37%"}, {"smiles": "COCCN1C[C@@H](CO)O[C@@H](n2cnc3c(NCCCO)ncnc32)C1", "growth rescue (activation)": "inactive: -2.94%"}, {"smiles": "O=C(O)C1CCCCC1C(=O)NCCCN1CCOCC1", "note": "(configuration not stated)", "growth rescue (activation)": "inactive: 12.8%"}, {"smiles": "COCCCNC(=O)c1cccc2c(-c3ccnn3C)coc12", "growth rescue (activation)": "inactive: 20.1%"}, {"smiles": "Cn1cc(Br)c(C(=O)NNC(=O)c2ccccc2)n1", "growth rescue (activation)": "inactive: -15.8%"}, {"smiles": "Cc1cc(/C=C2/C(=O)NN(c3ccccc3)C2=O)c(C)n1-c1ccc(O)cc1", "growth rescue (activation)": "inactive: -4.96%"}, {"smiles": "Cc1ccccc1NC(=O)/C(C#N)=C/c1ccc(-c2ccc(Cl)c(C(=O)O)c2)o1", "growth rescue (activation)": "inactive: -7.3%"}, {"smiles": "COc1ccccc1C(=O)N=C1NC(=O)CC2C(=O)NCCN12", "note": "(configuration not stated)", "growth rescue (activation)": "inactive: -1.14%"}, {"smiles": "CC1(C(=O)NS(=O)(=O)c2ccc(F)cc2F)CCN1C(=O)CC1CCCCC1", "note": "(configuration not stated)", "growth rescue (activation)": "inactive: 10.5%"}, {"smiles": "COc1ccc2nc(CC(C)(C)CC(=O)O)c[n+]([O-])c2c1", "growth rescue (activation)": "inactive: -14.3%"}, {"smiles": "Cc1ccc(C)c(NCc2n[nH]c(=S)n2-c2ccccc2)c1", "growth rescue (activation)": "inactive: -4.51%"}, {"smiles": "CCOc1ccc2nc(N3CCC(C(=O)NCCCN4CCOCC4)CC3)sc2c1", "growth rescue (activation)": "inactive: 23.7%"}, {"smiles": "NS(=O)(=O)c1cccc(NC(=O)COC(=O)Cc2ccc(Cl)cc2)c1", "growth rescue (activation)": "inactive: -0.0613%"}, {"smiles": "COc1ccccc1/C=C/CN1CCN(Cc2ccc(C)o2)C(CCO)C1", "note": "(configuration not stated)", "growth rescue (activation)": "inactive: 8.38%"}, {"smiles": "O=C(Cc1ccccc1Cl)Nc1cccc(S(=O)(=O)N2CCOCC2)c1", "growth rescue (activation)": "inactive: 17.3%"}, {"smiles": "N#C/C(=C\\C1=C(N2CCOCC2)C(=C/c2cccc([N+](=O)[O-])c2)/CC1)C(=O)Nc1ccccc1F", "growth rescue (activation)": "inactive: 5.39%"}, {"smiles": "CCOc1ccc(N2CC(C(=O)N3CCCCCC3)CC2=O)cc1", "note": "(configuration not stated)", "growth rescue (activation)": "inactive: 12.4%"}, {"smiles": "CSc1ccccc1C(=O)C1CCCN(C(=O)CCN2CCCO2)C1", "note": "(configuration not stated)", "growth rescue (activation)": "inactive: 3.23%"}, {"smiles": "Cc1csc(SCC(=O)NC2CCS(=O)(=O)C2)n1", "note": "(configuration not stated)", "growth rescue (activation)": "inactive: -30%"}, {"smiles": "CCOc1ccc(S(=O)(=O)NCc2cccnc2)c2ccccc12", "growth rescue (activation)": "inactive: 7.01%"}, {"smiles": "O=C(O)c1cc(N/N=C/c2c[nH]c3ccccc23)ccc1Cl", "growth rescue (activation)": "inactive: 0.654%"}, {"smiles": "CC(C)[C@H](NS(=O)(=O)c1ccccc1)C(=O)Nc1nccs1", "growth rescue (activation)": "inactive: -12.1%"}, {"smiles": "COc1cc(/C=N/n2cnc3scc(-c4cccs4)c3c2=O)cc(OC)c1OC", "growth rescue (activation)": "inactive: 11.4%"}, {"smiles": "COc1ccc(N=Cc2c(O)n(-c3ccc(OC)cc3)c(=O)c3ccccc23)cc1", "growth rescue (activation)": "inactive: -8.43%"}, {"smiles": "CCC1CCCCN1C(=O)c1ccc([N+](=O)[O-])o1", "note": "(configuration not stated)", "growth rescue (activation)": "inactive: 21.1%"}, {"smiles": "CC(=O)NC(=S)Nc1ccccc1C(=O)Nc1ccccc1", "growth rescue (activation)": "inactive: 0.203%"}, {"smiles": "Fc1ccc(Oc2cnc3ccccc3n2)cc1", "growth rescue (activation)": "inactive: 10%"}, {"smiles": "CCCCOC(=O)c1ccc(S(N)(=O)=O)o1", "growth rescue (activation)": "inactive: 5%"}, {"smiles": "Cc1ccnc2nc(C(=O)OCC(=O)N3CCc4ccccc43)nn12", "growth rescue (activation)": "inactive: -1.35%"}, {"smiles": "CCCn1cnc2cc(NCc3cccs3)ccc21", "growth rescue (activation)": "inactive: -5.47%"}, {"smiles": "Cn1cccc1/C=N/NC(=O)c1cc2ccccc2cc1O", "growth rescue (activation)": "inactive: 7.82%"}, {"smiles": "COc1ccc(CC(=O)O/N=C(\\N)c2ccccn2)cc1", "growth rescue (activation)": "inactive: 11.3%"}, {"smiles": "CCCOc1ccc(CN2C(=O)C(=O)c3cccc(C)c32)cc1", "growth rescue (activation)": "inactive: -92.8%"}, {"smiles": "Cc1ccc(-n2nc(C)c3c(C)c(CCC(=O)NCc4ccc(Cl)cc4)c(C)nc32)cc1", "growth rescue (activation)": "inactive: -4.28%"}, {"smiles": "CSc1nnc(C)c(/C=C/Nc2ccc(F)cc2F)n1", "growth rescue (activation)": "inactive: 4.72%"}, {"smiles": "COc1cccc(NC(=O)N2CCC(NC(=O)c3ccco3)CC2)c1", "growth rescue (activation)": "inactive: 3.97%"}, {"smiles": "CCc1nnc(NS(=O)(=O)c2ccc(NC(=O)/C=C/C(=O)O)cc2)s1", "growth rescue (activation)": "inactive: -20%"}, {"smiles": "O=C(N/N=C/c1ccccn1)c1ccc(NC(=O)c2ccccc2Cl)cc1", "growth rescue (activation)": "inactive: 11.9%"}, {"smiles": "Cc1ccc(CNC(=O)CN2C(=O)NC(C)(c3ccccc3Cl)C2=O)cc1", "note": "(configuration not stated)", "growth rescue (activation)": "inactive: 6.8%"}, {"smiles": "CC1(C)CC(=O)C2=C(C1)C(c1cn(-c3ccccc3)nc1-c1ccccc1)C(C#N)=C(N)O2", "note": "(configuration not stated)", "growth rescue (activation)": "inactive: 11%"}, {"smiles": "NNc1ccc(Cc2ccc(Cl)cc2Cl)nn1", "growth rescue (activation)": "inactive: 24%"}, {"smiles": "CC(NC(=O)/C=C/c1ccc(Br)cc1)c1ccc(Cl)cc1", "note": "(configuration not stated)", "growth rescue (activation)": "inactive: 3.64%"}, {"smiles": "Cc1cccc(N)c1-c1c(C)cccc1N", "growth rescue (activation)": "inactive: 6.12%"}, {"smiles": "O=C(CNC(=O)c1ccc(F)cc1)N/N=C/c1cccnc1", "growth rescue (activation)": "inactive: 0.713%"}, {"smiles": "N#Cc1cc(C(=O)c2ccccc2O)cn(-c2nccs2)c1=O", "growth rescue (activation)": "inactive: -7.44%"}, {"smiles": "COc1cc(CN2CCC(C(=O)NC(c3ccccc3)c3ccsc3)CC2)cc(OC)c1", "note": "(configuration not stated)", "growth rescue (activation)": "inactive: -5.11%"}, {"smiles": "O=C(NCc1n[nH]c(=S)n1-c1ccc(Br)cc1)c1ccc(S(=O)(=O)N2CCOCC2)cc1", "growth rescue (activation)": "inactive: 5.11%"}, {"smiles": "COC(=O)c1cc(C(=O)OC)cc(N2C(=O)CN=C2Nc2nc(C)cc(C)n2)c1", "growth rescue (activation)": "inactive: -7.77%"}, {"smiles": "CCN(CC)c1ccc(NS(=O)(=O)c2ccc(OC)cc2)cc1", "growth rescue (activation)": "inactive: -1.76%"}, {"smiles": "CCCc1cc(=O)[nH]c(SCC(=O)N2CCN(S(=O)(=O)c3ccc(C)cc3C)CC2)n1", "growth rescue (activation)": "inactive: 12.1%"}, {"smiles": "Cc1ccc(OCC(=O)NNC(=O)CSc2nnc(-c3ccc(C)cc3)n2C)cc1", "growth rescue (activation)": "inactive: 5.23%"}, {"smiles": "COc1cccc(N2C(=O)[C@H]3C(C(=O)c4cnccn4)=NN[C@H]3C2=O)c1", "growth rescue (activation)": "inactive: -3.91%"}, {"smiles": "COc1ccc(Nc2nc(C)cc(C)c2C(N)=O)cc1OC", "growth rescue (activation)": "inactive: 4.65%"}, {"smiles": "S=C(NCc1ccccc1)NNc1nc2ccccc2[nH]1", "growth rescue (activation)": "inactive: 23.5%"}, {"smiles": "Cc1cnc(C(=O)OCc2c(C)cc(C(C)(C)C)cc2C)cn1", "growth rescue (activation)": "inactive: -23.8%"}, {"smiles": "COc1cc(NS(=O)(=O)c2ccc3[nH]c(=O)oc3c2)cc(OC)c1", "growth rescue (activation)": "inactive: -6.24%"}, {"smiles": "Fc1cccc(/C=N/NC(=S)Nc2ccccc2Cl)c1", "growth rescue (activation)": "inactive: 0.31%"}, {"smiles": "O=[N+]([O-])c1cc(S(=O)(=O)N2CCCC2)ccc1SCCO", "growth rescue (activation)": "inactive: 4.95%"}, {"smiles": "OC(c1ccc(Cl)c(Cl)c1)c1ncc(-c2cccc(F)c2)[nH]1", "note": "(configuration not stated)", "growth rescue (activation)": "inactive: 8.71%"}, {"smiles": "CC(C)NC(=O)C1(C)CCN1C(=O)c1cccc(F)c1", "note": "(configuration not stated)", "growth rescue (activation)": "inactive: 8.22%"}, {"smiles": "O=C(NCCc1c[nH]c2ccccc12)c1cnccn1", "growth rescue (activation)": "inactive: 2.69%"}, {"smiles": "Cc1cc(CSc2ccccc2C(=O)O)on1", "growth rescue (activation)": "inactive: 2.82%"}, {"smiles": "COc1ccc(C(=O)N2CCCC(c3ccccc3)=N2)cc1", "growth rescue (activation)": "inactive: 2.44%"}, {"smiles": "CCC(=O)c1ccccc1OCCN1CCN(CC)CC1", "growth rescue (activation)": "inactive: -8.47%"}, {"smiles": "O=C(CSc1ncccn1)c1ccccc1Br", "growth rescue (activation)": "inactive: 7.58%"}, {"smiles": "Cc1cc(C)n2ncc(C(=O)NC3CCCCC3)c2n1", "growth rescue (activation)": "inactive: 0.625%"}, {"smiles": "COCCOc1ccc(C(F)(F)F)cc1NC(=O)c1ccc(C(F)(F)F)cc1", "growth rescue (activation)": "inactive: -14.8%"}]}]}
